The other results are listed elsewhere or left out. Cut-off read from the data, not from the text of the source: active = 3.2 or more and inactive = the rest. Most of these values are background signal.
B1: PDE6B_Y227_L228I_YF (peptide)
chain: IFHLSYIHNCE
B2: PDHA1_Y242_YF (peptide)
chain: AASTDYFKRGD
B3: PHIP_Y16 (peptide)
chain: LRSELYFLIAR
B4: PIK3R1_Y467_YF (peptide)
chain: EFDRLYEEFTR
B5: PIK3CA_Y1021_R1023Q (peptide)
chain: FDDIAYIQKTL
B6: PIK3CA_Y1021_Y1021N (peptide)
chain: FDDIANIRKTL
B7: PDGFRB_Y716_N718Y (peptide)
chain: PSAELYSYALP
B8: PDLIM5_Y382_T381A (peptide)
chain: SNSAAYSGSVA
B9: PIK3AP1_Y553 (peptide)
chain: PDNEPYIFKVF
B10: PFAS_Y538 (peptide)
chain: AGAIIYTSRFQ
B11: PIK3CA_Y1021_Y1021C (peptide)
chain: FDDIACIRKTL
B12: PIK3CA_Y1021 (peptide)
chain: FDDIAYIRKTL
B13: PCDH15_Y931_R929Q (peptide)
chain: FSKQIYKGMVA
B14: PDGFRB_Y562 (peptide)
chain: QKKPRYEIRWK
B15: PGM1_Y521_L516P_YF (peptide)
chain: PFIDSYEKDVA
B16: PGM1_Y66_K68M (peptide)
chain: GDGRFYMMEAI
B17: PHACTR1_Y525_R521C (peptide)
chain: ICFSDYVEVAD
B18: PEAR1_Y890_R885H_YF (peptide)
chain: HLDRSYSFSFS

Biological target: SHP2 C-SH2 domain E139D
Assay: enrichment score (SH2-bound / input frequency) (ratio); bacterial display of known human phosphotyrosine sites (pTyr-Var adds point mutants) read by sequencing; higher = stronger binding; tyrosines were phosphorylated by kinases first
Details: peptide library: pTyr-Var
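Note: displayed peptides selected on beads carrying the immobilized SH2 domain, with library peptides lacking any tyrosine serving as negative controls.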

Row | Binder | enrichment score
1 | B1 | active: 3.73
2 | B2 | inactive: 0.545
3 | B3 | inactive: 3.14
4 | B4 | inactive: 0.971
5 | B5 | inactive: 0.819
6 | B6 | inactive: 0.662
7 | B7 | inactive: 0.901
8 | B8 | inactive: 0.663
9 | B9 | inactive: 0.605
10 | B10 | inactive: 0.662
11 | B11 | inactive: 1.16
12 | B12 | inactive: 0.868
13 | B13 | inactive: 0.626
14 | B14 | active: 7.54
15 | B15 | inactive: 0.639
16 | B16 | inactive: 1.09
17 | B17 | inactive: 1.16
18 | B18 | inactive: 0.742

Biological target: SHP2 C-SH2 domain wild-type
Assay: as above
Details: peptide library: pTyr-Var

Row | Binder | enrichment score
19 | B1 | active: 3.21
20 | B2 | inactive: 0.452
21 | B3 | active: 3.77
22 | B4 | inactive: 0.873
23 | B5 | inactive: 0.678
24 | B6 | inactive: 0.764
25 | B7 | inactive: 0.86
26 | B8 | inactive: 0.601
27 | B9 | inactive: 0.605
28 | B10 | inactive: 0.649
29 | B11 | inactive: 1
30 | B12 | inactive: 0.765
31 | B13 | inactive: 0.563
32 | B14 | active: 7.33
33 | B15 | inactive: 0.698
34 | B16 | inactive: 0.803
35 | B17 | inactive: 1.38
36 | B18 | inactive: 0.592

Biological target: SHP2 N-SH2 domain L43F
Assay: as above
Details: peptide library: pTyr-Var

Row | Binder | enrichment score
37 | B1 | active: 3.21
38 | B2 | inactive: 0.542
39 | B3 | active: 3.37
40 | B4 | inactive: 0.856
41 | B5 | inactive: 0.832
42 | B6 | inactive: 0.756
43 | B7 | inactive: 0.633
44 | B8 | inactive: 0.554
45 | B9 | inactive: 0.758
46 | B10 | inactive: 0.63
47 | B11 | inactive: 0.837
48 | B12 | inactive: 0.66
49 | B13 | inactive: 0.67
50 | B14 | active: 4.62
51 | B15 | inactive: 0.585
52 | B16 | inactive: 0.957
53 | B17 | inactive: 1.01
54 | B18 | inactive: 0.577

Biological target: SHP2 N-SH2 domain T42A
Assay: as above
Details: peptide library: pTyr-Var

Row | Binder | enrichment score
55 | B1 | inactive: 2.69
56 | B2 | inactive: 0.442
57 | B3 | inactive: 2.63
58 | B4 | inactive: 0.776
59 | B5 | inactive: 0.656
60 | B6 | inactive: 0.57
61 | B7 | inactive: 0.552
62 | B8 | inactive: 0.445
63 | B9 | inactive: 0.522
64 | B10 | inactive: 0.842
65 | B11 | inactive: 0.883
66 | B12 | inactive: 0.675
67 | B13 | inactive: 0.59
68 | B14 | active: 6.75
69 | B15 | inactive: 0.662
70 | B16 | inactive: 0.734
71 | B17 | inactive: 1.16
72 | B18 | inactive: 0.658

Biological target: SHP2 N-SH2 domain T52S
Assay: as above
Details: peptide library: pTyr-Var

Row | Binder | enrichment score
73 | B1 | inactive: 2.7
74 | B2 | inactive: 0.388
75 | B3 | inactive: 3.06
76 | B4 | inactive: 0.854
77 | B5 | inactive: 0.703
78 | B6 | inactive: 0.796
79 | B7 | inactive: 0.702
80 | B8 | inactive: 0.487
81 | B9 | inactive: 0.635
82 | B10 | inactive: 0.555
83 | B11 | inactive: 0.926
84 | B12 | inactive: 0.781
85 | B13 | inactive: 0.509
86 | B14 | active: 5.62
87 | B15 | inactive: 0.847
88 | B16 | inactive: 0.777
89 | B17 | inactive: 1.18
90 | B18 | inactive: 0.754

Biological target: SHP2 N-SH2 domain wild-type
Assay: as above
Details: peptide library: pTyr-Var

Row | Binder | enrichment score
91 | B1 | inactive: 2.98
92 | B2 | inactive: 0.656
93 | B3 | active: 4.05
94 | B4 | inactive: 0.78
95 | B5 | inactive: 0.726
96 | B6 | inactive: 0.683
97 | B7 | inactive: 0.829
98 | B8 | inactive: 0.553
99 | B9 | inactive: 0.624
100 | B10 | inactive: 0.722
101 | B11 | inactive: 1.01
102 | B12 | inactive: 0.753
103 | B13 | inactive: 0.736
104 | B14 | active: 6.19
105 | B15 | inactive: 0.728
106 | B16 | inactive: 0.846
107 | B17 | inactive: 1.64
108 | B18 | inactive: 0.978

Reference: the supplement of paper PMC10369915
